Laboratory results published in PubChem BioAssay AID360 (National Center for Advancing Translational Sciences (NCATS), 2006).
Hit rate of the full screen: of about 48,000 compounds, about 550 (1.1%) were called active. Roughly 4% stayed inconclusive and do not appear here. No stated cut-off is given here; in the data, active means potency below about 15 µM; inconclusive means mostly about 16 µM to 33 µM; inactive means weaker than that. The list shows a part of the results.

Molecular target: Lysosomal acid glucosylceramidase (Homo sapiens) (UniProt P04062)
Assay: Glucocerebrosidase;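 further: the screen sought inhibitors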
Conditions: purified enzyme, resorufin glucoside fluorescence (screen aimed at inhibitors), 20 min
Summary of the method: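 Compounds titrated against 0.2 nM normal enzyme, 30 uM resorufin beta-D-glucopyranoside substrate, citrate/phosphate buffer with taurocholate and tween-20, pH 5.9. Reaction ran 20 min at room temperature; fluorescence (Ex 548/Em 600) gave AC50.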
Potency means the concentration at half of the fitted maximal effect.

Chain of UniProt P04062 (P04062 whole entry, looked up): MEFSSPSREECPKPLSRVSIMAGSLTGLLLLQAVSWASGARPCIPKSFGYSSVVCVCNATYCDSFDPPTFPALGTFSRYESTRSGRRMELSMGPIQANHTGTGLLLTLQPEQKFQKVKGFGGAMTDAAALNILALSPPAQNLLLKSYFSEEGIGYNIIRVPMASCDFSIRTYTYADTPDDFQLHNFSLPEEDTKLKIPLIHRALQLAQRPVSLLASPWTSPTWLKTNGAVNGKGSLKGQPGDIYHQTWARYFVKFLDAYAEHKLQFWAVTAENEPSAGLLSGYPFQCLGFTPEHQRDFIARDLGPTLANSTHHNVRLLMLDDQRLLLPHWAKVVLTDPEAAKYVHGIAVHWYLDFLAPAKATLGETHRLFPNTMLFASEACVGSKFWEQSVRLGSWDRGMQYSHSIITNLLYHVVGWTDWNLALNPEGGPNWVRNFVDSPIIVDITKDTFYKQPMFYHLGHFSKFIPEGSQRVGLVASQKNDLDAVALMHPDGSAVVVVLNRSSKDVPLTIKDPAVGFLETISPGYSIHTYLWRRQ

Potency, active:
O=C(CN(CCCN1CCOCC1)C(=O)Cn1nnc(-c2ccc(F)cc2)n1)NC1CCCCC1 3.96 µM

Potency, inactive:
O=C(CN(C(=O)C1CSC(=O)C1)c1ccccc1F)NCc1ccc2c(c1)OCO2 (stereo unspecified) > 76.9 µM, c1ccc(-c2nc3ccccc3nc2N2CCOCC2)cc1 > 76.9 µM, O=C(c1cccnc1)N1CCN(S(=O)(=O)c2ccc(S(=O)(=O)N3CCCC3)cc2)CC1 > 76.9 µM, CC(C)(C)c1ccc(-c2conc2N)cc1 > 76.9 µM, CCOc1ccc(N(CC)S(=O)(=O)c2ccc3c(c2)oc(=O)n3C)cc1 > 76.9 µM, COc1cccc(-c2nnc(SCC(=O)N(C(C)C)C(C)C)o2)c1 > 76.9 µM, c1ccc(C(c2nnnn2C2CCCCC2)N2CCc3ccccc3C2)nc1 (stereo unspecified) > 76.9 µM, COc1cc(C(=O)NC2=NCCS2)ccc1OCc1c(C)noc1C, O=C(O)C(c1ccccc1)C1(O)CCCC1 (stereo unspecified) > 76.9 µM, CCC(=O)Nc1cc(-c2nn(C)c(=O)c3ccccc23)ccc1OC > 76.9 µM, CCOC(=O)c1csc(NC(=O)CSc2nnc(C3CC3)n2C)n1 > 76.9 µM, O=C1OCCC1Sc1nc2ccccc2s1 (stereo unspecified) > 76.9 µM, CC1(C)CC(=O)C2=C(C1)OC(/N=C/N1CCOCC1)=C(C#N)C2c1ccccc1 (stereo unspecified) > 76.9 µM, CCCc1nc2oc3c(NCCN4CCOCC4)ncnc3c2c2c1CCCC2 > 76.9 µM, O=C(NCCN1CCOCC1)c1ccncc1 > 76.9 µM, CC(C)(C)OC(=O)N1CCC[C@H]1c1nnc(SC/C=C/c2ccccc2)o1 > 76.9 µM, Cn1c(=O)[nH]c(=O)c2c1nc(N1CCCC1)n2CCCSc1nc2ccccc2o1 > 76.9 µM, O=C(c1ccco1)N1CCN(C(c2ccc(F)cc2)c2nnnn2Cc2cccs2)CC1 (stereo unspecified) > 76.9 µM, O=C(NC1CCCc2ccccc21)C1CCN(c2c3c(nc4ncnn24)CCC3)CC1 (stereo unspecified) > 76.9 µM, Cc1ccc(C(C#N)N2CCOCC2)cc1 (stereo unspecified) > 76.9 µM, O=C(COc1ccc2c(c1)CCC2)N1CCc2ccccc21 > 76.9 µM, CC(SCC(=O)Nc1ccc(S(=O)(=O)N2CCCCC2)cc1)C(=O)O (stereo unspecified) > 76.9 µM, CCOC(=O)c1ccc(Nc2nnc3nc(C)cc(C)n23)cc1 > 76.9 µM, O=C1N(CN2CCC3(CC2)OCCO3)c2ccccc2C12OCCCO2 > 76.9 µM, CCn1c(SCC(=O)Nc2cccc(NC(C)=O)c2)nnc1C(C)C > 76.9 µM, CCc1ccccc1N1C[C@@]23C=C[C@@H](O2)C(C(=O)OCC(C)C)[C@H]3C1=O (stereo partly specified) > 76.9 µM, O=C(NCCc1ccccn1)c1n[nH]c(=O)c2ccccc12 > 76.9 µM, Nn1c(-c2ccccn2)nnc1-c1ccccn1 > 76.9 µM, CC1CCCC(N2C(=O)NC(NC(=O)c3ccco3)(C(F)(F)F)C2=O)C1C (stereo unspecified) > 76.9 µM, CCOc1ccc(NC(=O)CSc2nccn2C)cc1 > 76.9 µM, Cc1cc(C)nc(SCc2nnc(SCC#N)n2-c2cccc(Cl)c2)n1 > 76.9 µM, Cc1onc(-c2c(F)cccc2Cl)c1C(=O)OCC(=O)Nc1c(C)n(C)n(-c2ccccc2)c1=O > 76.9 µM, CCN1C(=O)c2cccc3c(S(=O)(=O)Nc4nc(C)cs4)ccc1c23 > 76.9 µM, Cc1ccc2c(CC(=O)NCc3ccc4c(c3)OCO4)coc2c1 > 76.9 µM, Cc1ccc(C(=O)NC2CCS(=O)(=O)C2)cc1S(=O)(=O)N1CCOCC1 (stereo unspecified) > 76.9 µM, CCN(Cc1cc2cc(C)ccc2[nH]c1=O)S(=O)(=O)c1ccccc1 > 76.9 µM, Cc1nc2ccccc2c(=O)n1C1CCCCCC1 > 76.9 µM, O=S(=O)(N1CCOCC1)n1nnc2ccccc21 > 76.9 µM, Cn1c(=O)c2ncn(CC(=O)NCCOc3ccc(C(C)(C)C)cc3)c2n(C)c1=O > 76.9 µM, COC(=O)C(CCCCN1C(=O)C2C3C=CC(C3)C2C1=O)N1C(=O)C2C3C=CC(C3)C2C1=O (stereo unspecified) > 76.9 µM, Cc1nn(C)c(C)c1S(=O)(=O)NC1CCCC1 > 76.9 µM, CCOC(=O)CSC1=C(C#N)C(c2ccccc2OCC)C(C#N)C(=O)N1 (stereo unspecified) > 76.9 µM, Cc1ccc2nc(CSc3nnc(Cc4cccs4)n3C3CCCCC3)cc(=O)n2c1 > 76.9 µM, O=C(CSc1nc2ccccc2n1CC(=O)NCc1ccccc1)NCc1ccco1 > 76.9 µM, COc1ccc(OC)c(S(=O)(=O)Nc2ccc(O)c(Sc3ncn[nH]3)c2)c1 > 76.9 µM
